Reference: PubChem BioAssay AID485297 (National Center for Advancing Translational Sciences (NCATS), 2010)
About 9,100 (2.8%) of roughly 320,000 compounds were called active. Inconclusive means that the source gave no clear call. Such entries were picked first, then a sample of the others. Calls come from the whole dose curve; as a rule, active = well fitted activation curve with a large enough effect; inconclusive = small, poorly fitted or top-dose-only effect; inactive = no such curve, though single readings can be large or run the other way. Potencies of inconclusive entries are doubtful fits and often do not repeat.

Assay: qHTS Assay for Rab9 Promoter Activators; note: nearly all actives have a fitted effect of over 60% in size; for activation, negative = inhibition: % of control where 0% means no effect
Conditions: Huh7 Rab9 promoter-luciferase reporter, luminescence, 24 h; series mostly up to 9.22 µM; activation, negative = inhibition: at the top concentration
Outline: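 Luminescence read-out: Huh7 cells stably expressing Rab9-luciferase, treated 24 h with compound at 37 °C, then lysed with luciferase reagent for 10 min at ambient before reading.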
Potency is the fitted concentration of half-maximal effect; tags give direction and shape of the fitted curve.

Potency, inconclusive:
CC1CCN(C(=O)Cn2nnc(-c3ccccc3)n2)CC1 5.01 µM [activator, single point], CC(=O)c1ccc(S(=O)(=O)Nc2cccc(-c3ccc(N4CCOCC4)nn3)c2)cc1 6.31 µM [activator, single point], C/C(=N\NC(=O)c1cccc([N+](=O)[O-])c1)c1cccs1 5.62 µM [activator, single point], Cc1ccc(NC(=O)COc2ccc3c(c2)OCO3)c(C)c1 4.47 µM [activator, partial curve], CC1CCN(CC(O)COCCC23CC4CC(CC(C4)C2)C3)CC1 (configuration not stated) 6.31 µM [activator, single point], CCN(CC)C(=O)C1CC(c2ccc(OC)cc2)=NO1 (configuration not stated) 3.55 µM [activator, partial curve], O=C(/C=C/c1c(Cl)cccc1Cl)NCc1ccco1 1.26 µM [activator, single point], O=C(NCC1CCCCC1)c1ccc(F)cc1Cl 3.16 µM [activator, partial curve], O=c1oc2cc(Cl)ccc2n1CSc1nc2ccccc2s1 3.55 µM [activator, single point], O=C(O)[C@@H]1C[C@@H](C(=O)O)N1 35.5 µM [activator, single point], COc1ccc(/C=N/N=C2/NC(=O)C(CC(=O)O)S2)cc1OCc1ccc(Cl)cc1 (configuration not stated) 1.26 µM [activator, single point], COc1ccc(C2CC(c3ccc(Cl)cc3)=NN2C(C)=O)cc1 (configuration not stated) 4.47 µM [activator, partial curve, poor fit], O=C(/C=C/c1ccccc1)OCc1cncs1 2.82 µM [activator, single point], COc1ccc(C(C)(C)C)cc1NC(=O)c1ccc2c(c1)SC1=NS(=O)(=O)CCN12 5.01 µM [activator, single point], COC(=O)c1cccc(NC(=O)c2ccccc2)c1 3.16 µM [activator, single point], Cc1ccc2c(C(=O)CSc3ccccc3)c(C)[nH]c2c1 3.16 µM [activator, single point], Cn1cc([N+](=O)[O-])c(C(=O)Nc2ccc3nc(-c4ccccc4)[nH]c3c2)n1 2.24 µM [activator, partial curve], Oc1ccc(NCc2cccc(OCc3ccccc3)c2)cc1 2.51 µM [activator, partial curve], O=C(NCc1ccco1)c1ccc(-c2cccc(Cl)c2)o1 5.62 µM [activator, single point], COc1ccc(C(=O)NCCC2=CCCCC2)cc1OC 4.47 µM [activator, partial curve], CCCc1cc(=O)n2[nH]c(-c3cccc(Br)c3)cc2n1 5.01 µM [activator, single point], CCOC(=O)c1cc(-c2ccccc2C)nn1Cc1cc(C)no1 3.16 µM [activator, single point], O=C(OCC(=O)N1CCCC1)c1ccccc1O 3.16 µM [activator, partial curve], O=C(Nc1cc([N+](=O)[O-])ccc1F)c1ccc2c(c1)OCCO2 1.58 µM [activator, partial curve], Cc1ccc(-c2nc(C)c(C(=O)O)s2)cc1 1.12 µM [activator, partial curve], Cc1ccc(NC(=O)c2cc(C)n(-c3ccccc3)c2C)cc1 0.316 µM [activator, partial curve], COc1cc(NC(=O)c2c(OC)cccc2OC)ccc1NC(=O)c1cc2ccccc2o1 2 µM [activator, partial curve], Cc1cccc(-c2nnc(-c3ccccc3)o2)c1 3.16 µM [activator, single point], O=c1c2ccccc2nc2ccc(N3CCOCC3)nn12 4.47 µM [activator, partial curve], C[n+]1cccc(C2C(C#N)=C(N)Oc3c2ccc2ccccc32)c1 (configuration not stated) 3.16 µM [activator, single point], c1ccc(-n2cnc3cc(NCc4ccco4)ccc32)cc1 2 µM [activator, partial curve], COc1ccccc1CNC(=O)CSC1=NCCS1 3.16 µM [activator, single point], CN(CCc1ccccc1)C(=O)CCc1nnc(Cc2ccc3c(c2)OCO3)o1 5.62 µM [activator, single point], CN(N=Nc1ccc([N+](=O)[O-])cc1)c1ccccc1 3.16 µM [activator, single point], O=C1C2C(C(=O)N1/N=C/c1cccc([N+](=O)[O-])c1)C1C=CC2C12CC2 (configuration not stated) 3.98 µM [activator, single point], Cc1nc2ccc(NC(=O)Cc3ccccc3F)cc2s1 1.26 µM [activator, partial curve], CC(=O)c1ccc2oc3ccccc3c(=O)c2c1 3.16 µM [activator, partial curve], Cc1[nH]c2ccccc2c1C(=O)CSC(=S)N1CCOCC1 5.01 µM [activator, single point], CCOc1ccc(OCc2ccc(C(=O)Nc3cccc(C)n3)o2)cc1 5.62 µM [activator, single point], Brc1ccc(N=NNc2ccccc2)cc1 6.31 µM [activator, single point], COc1cccc(C(=O)Nc2cccc(OC(C)=O)c2)c1 5.62 µM [activator, single point], O=C(O)c1ccccc1CSc1nc2ccccc2[nH]1 5.62 µM [activator, single point], CN(C)c1ccc(N=Nc2ccccc2C(=O)OCC(=O)N(C)C2CCCCC2)cc1 3.16 µM [activator, single point], OC(COc1ccc(OCc2ccccc2)cc1)CN1CCCCC1 (configuration not stated) 3.16 µM [activator, single point], CCOC(=O)N1CCN(S(=O)(=O)c2ccc(C(=O)N(CCCN(C)C)c3nc4ccc(CC)cc4s3)cc2)CC1 0.282 µM [activator, partial curve, poor fit], COc1cc(SC)ccc1C(=O)Nc1nc(C)cs1 0.316 µM [activator, partial curve]

Potency, active:
Cn1cc(Cl)c(-c2nc3ccccc3[nH]2)n1 3.55 µM, CC(C)(C)C(=O)CSc1ncnc2c1cnn2-c1ccccc1 0.631 µM, Nc1ccc2nn(-c3ccccc3)nc2c1 1.58 µM, O=C1c2ccccc2C(=O)C1c1ccccn1 1.41 µM, O=C(NC(=S)Nc1cccc([N+](=O)[O-])c1)c1ccccc1 3.98 µM, O=c1c(-c2ccc(F)cc2)coc2cc(O)ccc12 3.55 µM, CCCn1c(/C=C/c2ccccc2)nc2ccccc21 1.78 µM, COc1ccc2cc3cc(C(=O)N4CCCCC4C)oc3nc2c1 (configuration not stated) 0.447 µM, CN(C)c1ccc(-c2nc3ccccc3n2C)cc1 0.224 µM, O=C(/C=C/c1ccco1)Nc1ccccc1C(=O)O 2.82 µM, O=C(O)c1ccc2c(c1)C(=O)N(CCc1c[nH]c3ccccc13)C2=O 3.16 µM, Fc1ccc(-c2nc(-c3cccs3)no2)cc1 1.78 µM

activation, negative = inhibition, inactive:
N#CCCSCc1ccc2oc(C(=O)O)cc2c1 -7.29%, CCN(CC)c1ccc(NC(=O)c2ccco2)c(C)c1 0.537%, CCN(CC)c1ccc2cc(C(=O)NCc3ccc(F)cc3)c(=N)oc2c1 0.109%, O=C1CCCc2sc3c(c2N1)CCCCC3 15.8%, Cc1oc(-c2cccc(F)c2)nc1CN1CCCCC1CCc1ccccn1 (configuration not stated) -6.46%, C=CCn1c(SCC(=O)Nc2c(C)n(C)n(-c3ccccc3)c2=O)nc2scc(-c3ccccc3)c2c1=O 1.53%, CN(Cc1cccs1)C(=O)CCc1c[nH]c2ccccc12 29.5%, O=S1(=O)N=C(N/N=C/c2cccs2)c2ccccc21 -2.49%, CN(CC(=O)NCc1ccccn1)S(=O)(=O)c1ccc2ccccc2c1 -2.42%, CCc1cc(C(=O)COc2ccc(F)cc2)c(O)cc1O 27.2%, Cc1ccc(-c2cc(C(=O)Nc3ccc4c(c3)OCCO4)c3ccccc3n2)cc1 19.5%, Cc1ccc(N(Cc2ccccc2)C(=O)c2ccc(C)c(S(=O)(=O)N3CCOCC3)c2)cc1 -0.597%, Cc1ccc(-n2c(SCC(=O)N/N=C/c3ccccc3OCC(=O)O)nc3ccccc3c2=O)cc1 -3.38%, COc1ccc(NC(=O)c2ccc(Cn3cc(Cl)cn3)cc2)cc1 -1.43%, O=C(CSc1n[nH]c(-c2ccccc2)n1)NCc1cccc(C(=O)O)c1 -0.547%, O=C(CCc1nc2ccccc2[nH]1)Nc1ccccc1 1.76%, Cc1ccc(-c2nc(CN(Cc3c(C)nn(C)c3C)C(C)C)c(C)o2)o1 1.15%, COc1cccc(S(=O)(=O)NC2CCN(C#N)C2)c1 (configuration not stated) -2.35%, COc1cc(OC)cc(C(=O)OCC(=O)NCCCc2ccccc2)c1 1.84% [at 1.84 µM]
